According to PubChem BioAssay AID686978 (National Center for Advancing Translational Sciences (NCATS), 2013):
The whole screen tested about 420,000 compounds, of which about 64,000 (15%) were called active. The inconclusive results got no clear call from the source; some entries with a clear call stand among them for comparison. Calls follow the shape of the dose curve; as a rule, active = well fitted inhibition curve with a large enough effect; inconclusive = small, poorly fitted or top-dose-only effect; inactive = flat fitted curve, though single readings scatter. Potencies of inconclusive entries are left out as doubtful fits.
Potency is read from the fitted curve at half-maximal effect; tags tell the direction and shape of the fitted curve.

Test: qHTS for Inhibitors of human tyrosyl-DNA phosphodiesterase 1 (TDP1): qHTS in cells in absence of CPT; also: nearly all actives have a fitted effect of over 55% in size
Conditions: DT40 Tdp1-/- hTDP1 cells, no CPT, ATP luminescence, 48 h; series mostly up to 46.2 µM
Procedure, shortened: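 Cells were dispensed at 400 per well, compounds added by pin tool, plates incubated ≥48 hr at 37 °C, then CellTiter-Glo added for 30 min at room temperature before luminescence reading. Line: DT40 Tdp1-/- complemented with hTDP1; camptothecin omitted.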
For `C=CCn1cnc2scc(-c3ccccc3)c2c1=O`, the Potency was “inactive”.
In the case of `O=S(=O)(NCCc1ccncc1)c1ccc(S(=O)(=O)N2CCCCCC2)cc1`, the Potency is reported as “inactive”.
With `O=c1cc(Cl)c(-c2ccccc2)nn1Cc1ccc(Cl)cc1` the Potency was inconclusive [inhibitor, partial curve, poor fit].
In the case of `CC(C)C(=O)Nc1nnc(Cc2c[nH]c3ccccc23)s1`, the Potency is reported as “inactive”.
With `O=C(Nc1cccnc1)c1ccc([N+](=O)[O-])cc1Cl` the Potency was “inactive”.
For `CC(=O)c1ccc(N2CCN(C(=O)CCS(=O)(=O)c3ccc4c(c3)NC(=O)CS4)CC2)cc1`, the Potency was inconclusive [inhibitor, single point].
For `COc1ccc(-c2cnc(N)n2CC2CCCO2)cc1` (stereo unspecified), the Potency was inconclusive [inhibitor, partial curve].
For `CC(=O)Nc1ccc(NS(=O)(=O)c2ccc3c(c2)CC(C)N3C(=O)C2CCC2)cc1` (stereo unspecified), the Potency was inconclusive [inhibitor, partial curve, poor fit].
With `COc1ccc(-c2nc3c4cnn(-c5ccccc5F)c4ncn3n2)cc1` the Potency was “inactive”.
In the case of `COc1ccc(-n2nnnc2SCc2nc3ccccc3s2)cc1`, the Potency is reported as inconclusive [inhibitor, single point].
For `CCCn1cc(S(=O)(=O)CC(=O)Nc2ccc(OCC)cc2)c2ccccc21`, the Potency was inconclusive [inhibitor, partial curve].
For `CN(C(=O)COc1ccc(Oc2ccccc2)cc1)C1CCS(=O)(=O)C1` (stereo unspecified), the Potency was “inactive”.
In the case of `COc1ccc(N2CCN(S(=O)(=O)c3csc(C(N)=O)c3)CC2)cc1`, the Potency is reported as “inactive”.
In the case of `Cc1cccc(C)c1OCCSc1nc2ccccc2n1CC(=O)O`, the Potency is reported as “inactive”.
With `O=C(Nc1cccc(-c2nc3ccccc3o2)c1)c1cc([N+](=O)[O-])ccc1N1CCOCC1` the Potency was active: 8.2 µM.
For `COc1ccc(CCNC(=S)Nc2cccc(C)c2C)cc1`, the Potency was inconclusive [inhibitor, single point].
In the case of `CC(C)(C)NC(=O)CN(Cc1cccs1)C(=O)C1COc2ccccc2O1` (stereo unspecified), the Potency is reported as “inactive”.
In the case of `COc1ccc(S(=O)(=O)N(C)C[C@@H]2OCCCC[C@@H](C)Oc3ccc(NS(=O)(=O)c4cccs4)cc3C(=O)N([C@H](C)CO)C[C@@H]2C)cc1`, the Potency is reported as inconclusive [inhibitor, single point].
In the case of `CCOC(=O)c1c(C)[nH]c(C(=O)OCC(=O)Nc2cc(C)nn2-c2ccccc2)c1C`, the Potency is reported as active: 18.4 µM.
With `Cc1ccc(Sc2ccc([N+](=O)[O-])cc2[N+](=O)[O-])nc1` the Potency was active: 2.91 µM.
With `CCN(C[C@H]1N[C@@](Cc2ccccc2)(C(=O)OC)[C@H]2C(=O)N(Cc3ccccc3)C(=O)[C@@H]12)S(=O)(=O)c1ccccc1` the Potency was active: 23.1 µM.
